Among all 150,000 compounds or so, about 540 (0.36%) showed an effect of 50% or more. This is one part of the list.

As a reminder, the % Inhibition is the change of the read-out against control, counted positive when it falls.

The experiment relates to Plasmodium falciparum. In words: Primary screen in NF54 nanoGlo assay, in single point, at 2uM, 72h; a lower Z score goes with more inhibition. The class given is functional, Erythrocyte. Conditions: timepoint 72 hour.
In the case of `CC(C)c1ccc(NC(=O)N2CCC[C@@]3(C2)NC(=O)NC3=O)cc1`, the “% Inhibition” value was -1% and the Z score was 0.1.
The like results for `C[C@@H](O)[C@H](N)C(=O)N1CCc2[nH]nc(-c3cccc4ccccc34)c2C1` were, in that order, -2% and 0.34.
As for `CCC1(CC)NC(=O)N(Cc2ccn(-c3ccccc3)n2)C1=O`, the “% Inhibition” value was found to be 3% and the Z score is given as -0.49.
In the case of `Cc1ncnc(N2CCN(C3CCCCC3)CC2)c1C`, the “% Inhibition” value is -20% and the Z score stood at 2.22.
The like results for `O=S(=O)(Oc1ccc(Cc2ncc(C(F)(F)F)cc2Cl)cc1)c1ccccc1Cl` were, in that order, 37% and -1.02.
Consider `CCNC(=O)c1nn(-c2ccc(C)cc2)c(=O)n(Cc2cccnc2)c1=O`, for which the “% Inhibition” value was -2% and the Z score came to 0.28.
Consider `Cc1cc(C)c2oc(C(=O)N(Cc3cccc(Cl)c3)c3ccccn3)c(C)c2c1`, for which the “% Inhibition” value is reported as 17% and the Z score is reported as -2.
On to `COCCNC(=O)NCc1ccc(-c2ccco2)o1`, for which the “% Inhibition” value is reported as -1% and the Z score was found to be 0.1.
On to `O=S(=O)(C[C@H]1CCCCO1)Nc1cccc(Oc2ccnc3ccccc23)c1`, for which the “% Inhibition” value came out at 2% and the Z score is reported as -0.19.
Taken in the same sequence, the figures for `O=C(N[C@H]1CCc2ccccc21)N1CCN(c2nccs2)CC1` were 6% and -1.09.
The like results for `O=C(N[C@H]1CCN(Cc2cscn2)C[C@@H]1O)c1ccc(Cl)s1` were, in that order, 1% and -0.12.
With `Cc1cc(Cl)ccc1S(=O)(=O)NCc1nc(C(=O)N2CCCC2)c(C)o1`, the “% Inhibition” value was 3% and the Z score is -0.36.
For `O=C1NCCC[C@@H]1NC(=O)[C@@H]1CN(C(=O)c2cccc(F)c2)CCN1C(=O)c1ccccc1`, the “% Inhibition” value is -10% and the Z score is on record as 1.27.
Taken in the same sequence, the figures for `COc1cc(OC)c(C(=O)N2C[C@H]3CCN(C)[C@H]3C2)cc1OC` were -12% and 1.78.
The like results for `CN(C)C(=O)CN(Cc1nc(-c2cccs2)n[nH]1)c1ccccc1` were, in that order, -5% and 0.46.
For `Cc1nc2c(s1)C(N[C@@H]1C=C[C@H](CO)C1)CCC2` (stereo partly specified), the “% Inhibition” value worked out at 1% and the Z score is -0.06.
Taken in the same sequence, the figures for `O=C(Cn1cnc2nc(N3CCCC3)sc2c1=O)Nc1ccc(F)cc1Cl` were -16% and 2.65.
The like results for `CNC(=O)[C@@H]1CN(C(=O)Cc2ccccc2Br)C[C@H]1CO` were, in that order, -6% and 0.97.
Taken in the same sequence, the figures for `Nc1cc2c(c(Cc3cc(N)cc4c3OCOC4)c1)OCOC2` were 2% and -0.31.
Regarding `COC1CCN(C(=O)NC2CCCC2)CC1`, the “% Inhibition” value is on record as -5% and the Z score was 0.83.
Taken in the same sequence, the figures for `CC(C)(C)CNC(=O)c1[nH]cnc1C(=O)NC1CC1` were 32% and -3.75.
Taken in the same sequence, the figures for `Cc1nc2ccccc2nc1N(C)CC(=O)N(C)C` were 1% and -0.1.
Taken in the same sequence, the figures for `Cc1ccc(NC(=O)N2CCN(c3ccc(-c4ccccc4)cc3)C(=O)[C@@H]2C)cc1` were -13% and 2.14.
Take `O=S(=O)(Nc1ccnn1C1CCCC1)c1cccs1`: the “% Inhibition” value is listed as -5% and the Z score is 0.94.
`Cc1[nH]c(=O)n(C)c(=O)c1CCC(=O)Nc1ccc(C(C)C)cc1`: the “% Inhibition” value was found to be 26% and the Z score is listed as -3.34.
Taken in the same sequence, the figures for `CN(Cc1cnn(C)c1)C(=O)c1cc2c(s1)CCC2` were -4% and 0.53.
As to `CN(C)[C@H]1CCN(C(=O)c2cnn(-c3nccc(-c4ccccc4F)n3)c2C2CC2)C1`, the “% Inhibition” value is -2% and the Z score turned out to be 0.31.
With `C[C@@H](CCN1CCC(N2CCOC2=O)CC1)c1ccccc1`, the “% Inhibition” value is -11% and the Z score was found to be 1.
For the compound `Cc1ccccc1-c1cc(C(=O)NCCC(c2ccccc2)c2ccccc2)c2ccccc2n1`, the “% Inhibition” value is -7% and the Z score was determined as 1.15.
As for `CN(CCc1cccs1)C(=O)[C@@H](N)Cc1ccccc1`, the “% Inhibition” value was -6% and the Z score is listed as 1.02.
The like results for `CC1CN(C(c2ccco2)c2sc3ncnn3c2O)CC(C)O1` (stereo unspecified) were, in that order, -15% and 2.86.
Taken in the same sequence, the figures for `CCN(Cc1nccn1C)C(=O)c1cccc(C)n1` were -6% and 1.21.
The like results for `CS(=O)(=O)N[C@H]1CCN(C(=O)CC2=CCCCC2)C1` were, in that order, 1% and -0.11.
In the case of `COc1cc(Cl)cc(C(=O)N2CCCN(C)C3(CCN(C)CC3)C2)c1`, the “% Inhibition” value is -1% and the Z score is 0.14.
The like results for `CCc1nccn1CCCNS(=O)(=O)c1ccc(OC)c2c1CCCC2` were, in that order, -12% and 1.29.
For the compound `CCNC(=O)N1CCC(N(Cc2ccc(F)cc2)C(=O)CN(C2CC2)S(=O)(=O)c2ccc(C)cc2)CC1`, the “% Inhibition” value was 2% and the Z score is reported as -0.2.
The like results for `CNC(=O)C[C@H]1CCN(C(=O)CCC(F)(F)F)C1` were, in that order, 14% and -1.83.
The like results for `C[C@H](NS(C)(=O)=O)C(=O)NC(C)(C)c1ccc(F)cc1Cl` were, in that order, -2% and 0.28.
The like results for `Cc1nc(C)c(-c2ccc(C(=O)NCCCN3CCC[C@H](O)C3)cc2)s1` were, in that order, -9% and 1.13.
As to `CCc1nccc(-c2nccn2C2CCCC2)n1`, the “% Inhibition” value is given as -1% and the Z score was 0.14.
The like results for `CC(C)(C)OC(=O)N1CCN([C@H]2CCCN(Cc3cc(=O)n4nccc4[nH]3)C2)C(=O)C1` were, in that order, -4% and 0.74.
Taken in the same sequence, the figures for `Cc1ccc(OCCNC(=O)C2CCCC2)cc1C` were -14% and 1.51.
Taken in the same sequence, the figures for `COc1ccnc(N(C)Cc2nncn2C)n1` were 9% and -1.21.
For `COc1ccc(CCN2C(=O)N[C@@H](CC(=O)Nc3cc(C)n(C)n3)C2=O)cc1`, the “% Inhibition” value is given as -6% and the Z score is given as 0.75.
The like results for `COc1ccc(C(=O)N2CCCC[C@@]23CCOC3)o1` were, in that order, -14% and 2.58.
Taken in the same sequence, the figures for `CCOc1ccc(-c2c3n(c4ccc(O)cc24)CCc2cc(OCC)c(OCC)cc2-3)cc1OCC` were 0% and 0.
Consider `O=C(c1ccccc1OCC1CCCO1)N1CC2CCCC2C1` (stereo unspecified), for which the “% Inhibition” value was -11% and the Z score is given as 1.53.
Regarding `CCCOCc1ccccc1CNC(=O)N1CCC2(CCOCC2)C1`, the “% Inhibition” value is 35% and the Z score was -3.91.
With `Cc1cc(C)c(NC(=O)CCn2c(=O)c(C)nc3cc(C)c(C)cc32)c(C)c1`, the “% Inhibition” value was found to be 34% and the Z score is reported as -1.01.
Taken in the same sequence, the figures for `Cc1cccc(C)c1OCC(O)CNC1CCS(=O)(=O)C1` (stereo unspecified) were -7% and 0.98.
Regarding `Cc1ccc(-c2ncc(C(=O)N(C)Cc3cnn(C)c3)c(O)n2)cc1`, the “% Inhibition” value is on record as -5% and the Z score came out at 0.91.
Taken in the same sequence, the figures for `CC(=O)Nc1cccc(NCC(=O)N(Cc2ccc(C)o2)C2CC2)c1` were 3% and -0.46.
Take `CN(C(=O)c1ccc(-n2cccn2)nc1)C1CCCCCCC1`: the “% Inhibition” value was 2% and the Z score is recorded as -0.24.
The like results for `CCO[C@H]1CCCN(C(=O)c2ccc3c(c2)NCC3)C1` were, in that order, -6% and 0.73.
Taken in the same sequence, the figures for `O=C(NCc1ccccn1)[C@H]1CCCN(C2CCN(Cc3ccccc3F)CC2)C1` were -3% and 0.57.
As to `Cc1cc(C)c(S(=O)(=O)N(CCCc2ccccc2)CC(=O)N2CCNCC2)cc1C`, the “% Inhibition” value turned out to be 8% and the Z score was -0.9.
Taken in the same sequence, the figures for `Cc1cc(Cc2nc(-c3c4n(c(C)cc3=O)CCC4)no2)no1` were 1% and -0.15.
Taken in the same sequence, the figures for `O=C(c1cccc(-n2cnnn2)c1)N1CCn2c1nc1ccccc12` were 2% and -0.23.
Taken in the same sequence, the figures for `CC1(C)NC(=O)N(CNc2ccc(Oc3ccccc3)cc2)C1=O` were -32% and 3.71.
Turning to `CC(C)[C@H]1NC(=O)[C@@H](Cc2c[nH]c3ccccc23)NC1=O`, the “% Inhibition” value is given as -6% and the Z score was found to be 1.15.
Turning to `COc1ccc(CCC(=O)N2CC(F)(F)C[C@H]2c2nncn2Cc2ccc(F)cc2)cc1`, the “% Inhibition” value is recorded as 2% and the Z score is -0.25.
The like results for `CC(C)NS(=O)(=O)c1cccnc1N1CCC(O)(C(F)(F)F)CC1` were, in that order, 0% and 0.
For `COc1ccc(CN2C[C@H]3CC=CC[C@H]3C2)cc1Cn1cccn1`, the “% Inhibition” value was -21% and the Z score is reported as 2.78.
Taken in the same sequence, the figures for `O=C(NCC(=O)N1CCC1)c1cccc(Cl)c1` were -11% and 1.92.
The like results for `COc1cc(C(=O)N2Cc3ncccc3N3CCC[C@H]3C2)sn1` were, in that order, -4% and 0.6.
`Cn1c(NC(=O)CCN2CCCS2(=O)=O)nc2cccc(Cl)c21`: the “% Inhibition” value was -9% and the Z score stood at 0.95.
The like results for `Cc1c(Cl)cccc1NC(=O)CCNc1cc(C#N)ccn1` were, in that order, 3% and -0.45.
Regarding `O=S(=O)(Cc1c(Cl)cccc1Cl)N[C@H]1CCCNC1`, the “% Inhibition” value was found to be 7% and the Z score is listed as -1.17.
As to `CC(C)c1nc(N2CCCN(S(=O)(=O)c3ccccc3)CC2)c2cnn(-c3ccccc3)c2n1`, the “% Inhibition” value is -17% and the Z score came to 1.69.
The like results for `O=C(N[C@]1(CO)COc2ccccc2C1)c1csnn1` were, in that order, -5% and 0.93.
Taken in the same sequence, the figures for `CC(C(=O)Nc1ccccc1-c1ccccc1)N1CCCC1c1cccn1C` (stereo unspecified) were -2% and 0.44.
In the case of `O=C(NC1CCCC1)[C@@H](c1ccccc1)N1CCS(=O)(=O)CC1`, the “% Inhibition” value turned out to be 7% and the Z score is -0.84.
Taken in the same sequence, the figures for `CCn1cnnc1[C@H](C)NC(=O)c1coc(COc2ccc(F)cc2)n1` were 1% and -0.11.
Taken in the same sequence, the figures for `COCCNC(=O)[C@H]1CCCN(c2nc(C)nc3oc(C)c(C)c23)C1` were -9% and 0.86.
For `Cn1nc(NC(=O)C2CCCCC2)c2cccnc21`, the “% Inhibition” value is on record as 0% and the Z score is -0.03.
Taken in the same sequence, the figures for `COc1cc(OC)c(OC)cc1CN1CC[C@@]2(CCCN(CC3CCC3)C2)C1` were -7% and 0.66.
Consider `Cc1ccc(OCC(=O)Nc2ccc(N3CCN(c4c(F)c(F)c(F)c(F)c4F)CC3)c(Cl)c2)cc1C`, for which the “% Inhibition” value is 13% and the Z score is recorded as -2.02.
Taken in the same sequence, the figures for `O=C(NC(c1ccccc1)[C@H]1C[C@@H](O)C1)c1ccc(CO)cc1` (stereo partly specified) were -10% and 1.78.
Taken in the same sequence, the figures for `Nc1nc(CN[C@@H](CCc2ccc(F)cc2)C2CCC2)n[nH]1` were -7% and 1.16.
Taken in the same sequence, the figures for `CCCCCNC(=O)CN1CCC2(O)CCCCC2[C@@H]1c1ccc(O)c(OC)c1` (stereo partly specified) were -12% and 2.21.
In the case of `O=C(NCc1ccccc1Cl)c1cc(NS(=O)(=O)c2ccc(F)cc2)cc(NS(=O)(=O)c2ccc(F)cc2)c1`, the “% Inhibition” value was -1% and the Z score is recorded as 0.22.
The like results for `CCn1cnnc1CNC1CCCCC1c1ccccc1` (stereo unspecified) were, in that order, 0% and -0.06.
The like results for `CCCCn1c(N)c(N(C(=O)[C@@H]2COc3ccccc3O2)C2CCCC2)c(=O)[nH]c1=O` were, in that order, 25% and -2.79.
